# Out of some 310,000 compounds screened, about 2,200 (0.71%) showed an effect of 50% or more. The effect is printed as a negative number. This is one part of the list.
# Target: human ether-à-go-go-related gene (hERG) potassium channel (human, UniProt Q12809)
# Experiment: primary screen, population patch clamp on CHO cells stably expressing hERG
# Chain of human ether-à-go-go-related gene (hERG) potassium channel (Q12809 whole entry, looked up): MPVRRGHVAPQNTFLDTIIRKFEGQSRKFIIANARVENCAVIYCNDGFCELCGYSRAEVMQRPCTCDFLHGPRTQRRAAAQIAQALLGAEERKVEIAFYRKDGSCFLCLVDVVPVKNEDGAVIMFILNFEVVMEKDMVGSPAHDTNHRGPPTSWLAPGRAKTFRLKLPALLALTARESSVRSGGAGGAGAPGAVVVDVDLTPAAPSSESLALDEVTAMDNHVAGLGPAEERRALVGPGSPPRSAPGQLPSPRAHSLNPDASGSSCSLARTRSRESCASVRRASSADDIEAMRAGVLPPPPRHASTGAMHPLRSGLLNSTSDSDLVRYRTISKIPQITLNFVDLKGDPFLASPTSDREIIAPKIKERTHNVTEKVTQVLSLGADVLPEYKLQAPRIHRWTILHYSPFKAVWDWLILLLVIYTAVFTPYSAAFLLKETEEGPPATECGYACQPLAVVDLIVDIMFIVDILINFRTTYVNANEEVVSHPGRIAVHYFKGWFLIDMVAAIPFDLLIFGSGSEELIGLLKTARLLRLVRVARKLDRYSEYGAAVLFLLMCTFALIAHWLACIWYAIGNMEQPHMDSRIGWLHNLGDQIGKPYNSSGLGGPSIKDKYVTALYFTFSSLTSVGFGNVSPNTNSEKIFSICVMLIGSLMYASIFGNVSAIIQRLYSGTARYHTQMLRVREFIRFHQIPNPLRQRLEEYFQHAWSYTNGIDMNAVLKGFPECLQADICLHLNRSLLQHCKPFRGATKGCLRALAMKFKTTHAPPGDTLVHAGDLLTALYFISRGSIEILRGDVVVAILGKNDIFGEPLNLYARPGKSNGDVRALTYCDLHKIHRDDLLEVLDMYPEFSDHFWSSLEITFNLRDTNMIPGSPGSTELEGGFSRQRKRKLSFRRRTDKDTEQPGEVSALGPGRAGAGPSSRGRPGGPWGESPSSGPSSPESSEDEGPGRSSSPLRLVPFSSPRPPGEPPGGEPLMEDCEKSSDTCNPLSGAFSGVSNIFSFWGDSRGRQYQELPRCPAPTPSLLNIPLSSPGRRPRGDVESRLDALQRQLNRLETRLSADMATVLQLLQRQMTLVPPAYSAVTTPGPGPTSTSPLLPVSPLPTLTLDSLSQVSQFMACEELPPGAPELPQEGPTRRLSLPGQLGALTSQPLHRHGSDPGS
row,Compound,"hERG current change (%, negative = inhibition) at 1uM [%]"
1,CN(CC(=O)Nc1cccc(F)c1)C(=O)c1ccc2c(c1)NC(=O)CS2,7.98
2,COc1ccc(C(=O)Nc2oc(-c3ccccc3)c(-c3ccccc3)c2C#N)cc1OC,11.5
3,Cc1ccc(CN(CC(=O)NCc2ccccn2)S(=O)(=O)c2ccccc2)cc1,0.106
4,C=CC[N+](C)(C)CCCNC(=O)/C=N/O.[I-],14
5,CCOC(=O)CSc1ccc(C(=O)NCCN2CCOCC2)cc1[N+](=O)[O-],13.8
6,Cc1onc(-c2ccccc2)c1C(=O)N1CCCN2C(=O)c3ccccc3C21 (stereo not drawn),6.77
7,O=C(CN1C(=O)C2C3C=CC(C3)C2C1=O)Nc1ccc(S(=O)(=O)N2CCCCC2)cc1 (stereo not drawn),9.49
8,Cc1ccsc1/C=N/NC(=O)c1nnn(-c2nonc2N)c1C,-13.3
9,CCC/C=C1/CCCOC(C(=O)NCCNCCO)(C(F)(F)F)C1 (stereo not drawn),17.6
10,O=C(Nc1ccc(OCC(F)(F)C(F)F)c(C(F)(F)F)c1)c1ccc(Cl)cc1,6.93
11,c1ccc2[nH]c(SCc3cn4ccccc4n3)nc2c1,3.92
12,CCOC(=O)C1CCN(c2ncnc3c2cnn3-c2ccc(Cl)cc2)CC1,8.01
13,CCOC(=O)c1sc(/N=C/C2=C(O)CC(C)(C)CC2=O)c(C(=O)OCC)c1C,4.33
14,COc1ccccc1OCC(=O)Nc1ccc(N2CCOCC2)cc1N1CCOCC1,2.2
15,O=C(Nc1nc(-c2nc3ccccc3s2)cs1)C1CC1,6.85
16,CCOc1ccc2nc(NC(=O)CC3Oc4ccccc4NC3=O)sc2c1 (stereo not drawn),13.5
17,O=C(NCc1ccncc1)C1CCN(S(=O)(=O)c2cc(Cl)ccc2Cl)CC1,12.6
18,O=C(O)c1cccc(N2C(=S)N=C(Nc3ccccc3)C23CCCCC3)c1,13.2
19,CNC(=O)/C(=C\C=C\c1ccccc1)NC(=O)c1ccc([N+](=O)[O-])cc1,-85
20,COCCNC(=S)N1CCN(c2nc(-c3ccc(F)cc3)cs2)CC1,11
21,C=CCNC(=O)C1CCN(c2nc(C)cc(-c3ccccc3)n2)CC1,-31.2
22,O=S(=O)(NC12CC3CC(CC(C3)C1)C2)c1ccc(F)cc1,-0.925

row,Compound,"hERG current change (%, negative = inhibition) at 1uM [%]"
1,Cc1cccc(N2CCN(C(=O)NC(C)c3ccc(F)c(F)c3)CC2)c1C (stereo not drawn),-4.86
2,COc1cccc(CC2(CO)CCCN(Cc3ccc(OC(F)F)cc3)C2)c1 (stereo not drawn),-47.4
3,CNc1nc(NCCOC23CC4CC(CC(C4)C2)C3)nc(OCC(F)(F)F)n1,9.75
4,CCOC(=O)N1CCN(S(=O)(=O)c2ccc(C(=O)N(CCCN(C)C)c3nc4ccc(Cl)cc4s3)cc2)CC1.Cl,-1.29
5,CCCC(O)(c1ccc(OC)cc1)C(CN1CCOCC1)c1ccc(Cl)cc1.Cl (stereo not drawn),10.2
6,COc1ccc(C2/C=C\CN(C(=O)C3CCCC3)[C@H](Cc3ccccc3)C(=O)N2Cc2ccc(F)cc2)cc1 (stereo partly drawn),11.8
7,CCOC(=O)N(NC(=O)C(O)(C(C)C)C(C)C)c1ccccc1,12.9
8,CC(OC(=O)CN1C(=O)c2ccccc2C1=O)C(=O)NC1CCCC1 (stereo not drawn),3.48
9,O=c1c2c3c(sc2nc2n1CCCCC2)CCC3,10.9
10,CN(CCC(=O)Nc1ccc(Cl)cc1)Cc1ccccc1.Cl,2.99
11,COc1cccc(NC(=O)N2C3CCCC2CC(NC(=O)C(C)(C)C)C3)c1 (stereo not drawn),10.5
12,CC1CCC(NC(=O)c2cc(S(=O)(=O)N(C)C)ccc2N2CCCC2)CC1 (stereo not drawn),13.9
13,O=C(Nc1ccc(O)cc1)c1ccc(NC(=O)c2cccs2)cc1,14.8
14,COc1ccccc1Cn1c(=S)[nH]c2ccccc2c1=O,23.1
15,CC(=O)Nc1ccc(S(=O)(=O)NCc2ccc3c(c2)cc(C)n3C)cc1,-0.906
16,Cc1ccc(S(=O)(=O)/N=C2\CN(C)C(=O)N2C)cc1,5.41
17,CC(C)CCC(C(=O)NC(C)c1ccccc1)C(=O)NC(C)c1ccccc1 (stereo not drawn),14.5
18,CCOc1ccccc1C(=O)Nc1cc2c(cc1N1CCCC1)n(CC)c(=O)n2CC,-3.41
19,COc1ccc(C)cc1NC(=O)N1CCCc2ccccc21,15.7
20,O=S(=O)(Cc1ccccc1Cl)N1CCCC1,5.84
21,N#Cc1nc(Nc2cccc(Cl)c2)c2ncn(C3CCCC3)c2n1,14.3
22,CC(C)(C)C(=O)Nc1ccccc1N1CCN(c2ccc(F)cc2)CC1,13.1

row,Compound,"hERG current change (%, negative = inhibition) at 1uM [%]"
1,Cc1cc2nnc(SC3CCCCN(C(=O)c4ccc(F)cc4)C3=O)n2c2ccccc12 (stereo not drawn),0.556
2,C=CCn1c(SCC(=O)c2ccc(CNC(C)=O)o2)nc2scc(C3CC3)c2c1=O,4.5
3,Cc1ccc(S(=O)(=O)N2CCN(C(=O)CCn3nc(C)c(C)c3C)CC2)cc1C,3.83
4,N#C/C(N)=C(/N)C#N,12.6
5,OCC[C@@H]1C[C@H](O)[C@@H](O)[C@@]2(OCCc3ccccc32)O1,14.2
6,CCN(CC(=O)Nc1ccc(OC)cc1)C(=O)c1oc2c(Cl)cccc2c1C,2.23
7,COc1ccccc1NC(=O)CSc1nnnn1-c1ccc(C)cc1,9.73
8,CCCCCN(C(=O)CCCSc1nncs1)c1c(N)n(CCCC)c(=O)[nH]c1=O,19.1
9,O=C(O)CCCC(=O)Nc1ccc(-n2ccc(C(F)(F)F)n2)cc1,15.7
10,CCn1cc(C(=O)NCc2ccccc2F)c(=O)c2ccc(C)nc21,9.97
11,O=C(NCCN1C(=O)S/C(=C\c2cccc(Cl)c2Cl)C1=O)C1=COCCO1,11.3
12,CCn1cc(C(=O)N(C)Cc2ccc(OC(F)F)cc2)c(=O)c2ccc(C)nc21,-33.5
13,O=C(CSCCO)Nc1cc(C(F)(F)F)ccc1Cl,-1.1
14,CCn1c(SCC(=O)Nc2nncs2)nnc1-c1ccco1,15.5
15,COc1ccc(N(C)S(=O)(=O)c2cccc(C(=O)Nc3ccc4c(c3)OCCO4)c2)cc1,2.36
16,Cc1ccc(S(=O)(=O)N2CCN(C(=O)CSc3nccn3C)CC2)cc1,19.2
17,Cc1ccc(-c2nc3ncccc3o2)cc1NC(=O)c1cccs1,6.94
18,COc1ccc(NC(=O)CC(NC(C)c2ccccc2)C(=O)O)cc1 (stereo not drawn),7.28
19,N#Cc1ccc(-c2ccc(OCC(=O)Nc3cccnc3)cc2)cc1,16.3
20,CCOC(=O)N1CCN(C(=O)CN(C)S(=O)(=O)c2ccc(F)cc2)CC1,24.6
21,O=C(CCc1nc2ccccc2c(=O)[nH]1)OCc1nnc(-c2ccccc2)o1,9.39
22,CCC(=O)N1c2ccccc2NC2=C(C(=O)CC(C)(C)C2)C1c1ccc(O)c(OC)c1 (stereo not drawn),15.6

row,Compound,"hERG current change (%, negative = inhibition) at 1uM [%]"
1,CSc1nc(NCC(C)C)c2c3c(sc2n1)CN(C)CC3,-9.92
2,O=c1[nH]cn[nH]1,17.7
3,Cc1n[nH]c(=O)c2c(NC(=O)CSc3nncn3C(C)C)oc(C)c12,8.24
4,CSc1ccc(C=O)cc1,9.69
5,CNC(=O)c1[nH]cnc1C(=O)Nc1ccc(Cl)cc1,8.47
6,Cc1ccc(NC(=O)CCN2CC(C)OC(C)C2)cc1C.Cl (stereo not drawn),15.3
7,CC(=O)OCC(OC(C)=O)C(OC(C)=O)C(OC(C)=O)C(=O)Nc1ccc(C)cc1 (stereo not drawn),-3.41
8,CCOc1ccc(N(CC(=O)NCCSCc2ccccc2)S(=O)(=O)c2ccccc2)cc1,8.64
9,Cc1cc(-c2ccccc2)nc(N/N=C/c2ccccc2)n1,5.77
10,CCOc1cc(N2CCOCC2)c(OCC)cc1NC(=O)Cn1cnc2c(=O)n(C)c(=O)n(C)c21,-1.22
11,COC(=O)CN1C(=O)N(c2ccccc2)C(N(O)C(=O)Nc2ccccc2)C1(C)C (stereo not drawn),11.9
12,Cc1ccc(-c2nnn(CC(=O)N(Cc3cccs3)C(C(=O)NC3CCCC3)c3ccncc3)n2)cc1 (stereo not drawn),1.73
13,COc1ccc(CCNC(=O)CCS(=O)(=O)c2ccc3c(c2)NC(=O)CS3)cc1OC,3.63
14,CCN(Cc1ccncc1)C(=S)Nc1ccccc1,3.78
15,COc1ccc(C)cc1S(=O)(=O)N(CC(=O)Nc1cccc([N+](=O)[O-])c1)c1ccc(C)c(C)c1,0.946
16,Cc1noc(C)c1C(=O)N1CCc2ccccc21,0.0406
17,Cc1c(Cl)cccc1NCC(=O)NN=C1CCCC1,12.1
18,N#CC1=C2SCN(c3ccccc3)CN2C(=O)CC1c1c(Cl)cccc1Cl (stereo not drawn),10.2
19,CCC1(c2ccc(F)cc2)NC(=O)N(CC(=O)N(CCC#N)c2ccccc2)C1=O (stereo not drawn),11.9
20,O=C(OCN1C(=O)c2ccccc2C1=O)c1cccc(OC(F)F)c1,13.4
21,CCOc1ccccc1CN1CCN(CCCc2ccccc2)CC1CCO (stereo not drawn),-30
